The values that follow come from PubChem BioAssay AID463173 (ICCB-Longwood Screening Facility, Harvard Medical School, 2010).

SMILES strings stand for the structures. Among all 52,000 compounds or so, about 4,300 (8.3%) were called active. No stated cut-off is given here; in the data, active means survival mostly below about 52% (no sharp cut-off); inactive means mostly above about 56%. Some of the results follow.

The test concerns DeltatarO mutant. Put plainly: growth inhibition of S. aureus wild type versus tarO mutant, primary screen, teichoic acid synthesis inhibitors, RN4220, OD600 (AID 463173). The conditions noted are these: OD600, 18 h, stronger effect = lower value, screened at 18.75 µg/mL (by protocol).
As for `Cc1cccc(C(=O)Nc2ccc3oc(-c4cccc5c(Br)cccc45)nc3c2)c1`, the survival was inactive: 67%.
Turning to `COc1ccc2c(c1)CC(C(=O)NCc1ccc(F)cc1)CO2` (stereo not drawn), the survival was inactive: 73%.
On to `COc1ccc(CCNCc2c(C(=O)O)c(C)n(Cc3c(F)cccc3Cl)c2C)cc1OC`, for which the survival was inactive: 121%.
For `Cc1cc(OCC(=O)Nc2ccc(C(=O)OC3CCCCC3)cc2)cc(C)c1Cl` the value was inactive: 50%; for `CCc1ccc(NC(=O)C2CCN(c3nc(-c4ccc(OC)cc4)no3)CC2)cc1`, inactive: 84%; for `CCOc1ccc2nc(N3CCN(C(=O)c4ccc5c(c4)CCCC5)CC3)sc2c1`, inactive: 65%.
For `Cn1c(=O)[nH]c(=O)c2c1nc(N1CCCC1)n2CCSc1ncccn1` the value was inactive: 73%.
For `Cc1ccc2[nH]c(=O)c3cc(C(=O)N(C)c4ccc(Br)cc4)sc3c2c1` the value was inactive: 68%; for `CC(=O)Nc1cc(C(=O)NCc2ccccc2Cl)ccc1Sc1ccc(F)cc1`, inactive: 94%; for `Cc1cc(C)cc(NC(=O)c2cc(S(=O)(=O)NCCC3=CCCCC3)ccc2F)c1`, inactive: 67%.
As for `Cc1ccc(NC(=O)c2cc(S(=O)(=O)N3CCCCC3)c[nH]2)cc1N(C)C`, the survival was inactive: 94%.
For `CCCS(=O)(=O)c1nc(S(=O)(=O)c2ccc(C)cc2)c(N(CC)CC)s1` the value was inactive: 112%; for `CCOC(=O)c1ccc(NC(=O)CSc2c(C(C)C)cnc3c2c(=O)n(C)c(=O)n3C)cc1`, inactive: 107%.
For `Cc1ccc(-n2nc(C)c3nc(CCC(=O)Nc4cccc(C)c4C)c(=O)n(C)c32)cc1` the value was inactive: 92%; for `Cc1cc(C)c2c(CC(=O)Nc3ccc(F)cc3)coc2c1`, inactive: 54%; for `CC(C)OC(=O)c1ccc2c(c1)no[n+]2[O-]`, inactive: 98%.
With `COc1ccc(CNC(=O)Cn2nc3c(cc2=O)CCCC3)cc1`, the survival was active: 46%.
With `Cc1cccc(N2C(=O)N(Cc3cc(=O)n4ccccc4n3)c3ccccc3S2(=O)=O)c1` the figure was inactive: 97%; with `Cc1ccc2c(c1)C(=O)OC(C(=O)Nc1ncc(Cc3ccccc3Cl)s1)C2` (stereo not drawn), inactive: 68%; with `COc1ccccc1CN1CCN(C(CC(C)C)c2nnnn2Cc2ccc(F)cc2)CC1` (stereo not drawn), inactive: 85%.
With `Cc1ccc(-c2cc(-c3ccc4c(c3)NC(=O)CO4)nc3c2COc2ccccc2-3)cc1` the figure was inactive: 85%.
For `COc1ccc2c(c1)c1c(c(=O)n(-c3ccc(F)c(Cl)c3)c(=O)n1Cc1cccc(C)c1)n2C` the value was inactive: 80%.
As for `Cc1ccc(C(=O)Nc2c(C(=O)NC(C)(C)C)oc3ccccc23)cc1`, the survival is active: 32%.
For `CCOc1ccc2c(c1)c(=O)c(C(=O)c1ccccc1)cn2Cc1ccccc1` the value was inactive: 87%; for `Cc1c(CCC(=O)NCCc2ccccc2)c(=O)oc2cc(O)ccc12`, inactive: 53%; for `CCc1cccc(CC)c1NC(=O)C(CC)n1nc(C)n2c(cc3cc(C)ccc32)c1=O` (stereo not drawn), inactive: 53%.
Consider `CCOC(=O)CSc1nnc(COc2cccc(C)c2)o1`, for which the survival was active: 42%.
For `CCOC(=O)c1c(C)[nH]c(C)c1S(=O)(=O)N1CCCC(C(=O)Nc2ccccc2OCC)C1` (stereo not drawn) the value was inactive: 120%; for `Cc1ccc2c(c1)C(c1ccccc1)N(C(=O)c1ccccc1F)CC(=O)N2` (stereo not drawn), inactive: 75%; for `CCCc1[nH]nc2c1C1(CCN(C(C)=O)CC1)C(C#N)=C(N)O2`, inactive: 74%.
With `CCc1cccc2cc(CN)c(=O)[nH]c12` the figure was inactive: 98%; with `CCCn1c(SCc2nc(-c3cc(OC)ccc3OC)no2)nnc1-c1ccc(Cl)cc1`, inactive: 63%; with `CCOC(=O)c1cccc(NC(=O)c2cc3cc4ccc(C)cc4nc3o2)c1`, inactive: 77%.
With `COc1ccc(O)c(-c2cn[nH]c2-c2cccs2)c1` the figure was inactive: 89%.
Regarding `COCCN=C1Sc2nc3c(C)cccc3cc2CN1Cc1ccco1`, the survival is inactive: 108%.
Turning to `COc1ccc2c(c1)c(=O)c(S(=O)(=O)c1ccc(Cl)cc1)cn2C`, the survival is inactive: 89%.
With `N#Cc1ccc(NC(=O)CNCCN2CCOCC2)cc1` the figure was inactive: 79%.
With `Cc1ccccc1CNC(=O)C1CCN(c2nnc(-n3c(C)ccc3C)s2)CC1` the figure was inactive: 101%; with `Cc1cccc(NC(=O)N2CCC(CN3CCC(C)CC3)CC2)c1C`, inactive: 82%.
For `CSc1nc(Nc2cccc(C)c2)c(C#N)c(-c2ccccc2)n1` the value was inactive: 93%.
On to `CNc1c(NC(=O)c2cc(OC)cc(OC)c2)c(=O)oc2ccccc12`, for which the survival was inactive: 77%.
For `Cn1c(SCC(=O)N2CCCc3ccccc32)ncc(C(=O)Nc2ccc(F)cc2)c1=O` the value was inactive: 78%; for `CCOC(=O)c1cnc2ccc(OC)cc2c1NCCc1ccc(OC)c(OC)c1`, inactive: 65%; for `CCCCNC(=O)c1nn(-c2ccc(C)cc2)c(=O)c2c1c1ccccc1n2C`, inactive: 81%.
For `Cc1ccc(C(=O)CCNc2ccc(F)c(Cl)c2)o1` the value was inactive: 85%.
For `Cc1cccc(CNC(=O)c2cccc(NC(=O)N3CCSc4ncccc43)c2)c1` the value was inactive: 83%; for `CCN1CCN(c2csc3ccc(C)cc3c2=O)CC1`, inactive: 74%.
Turning to `Cc1ccc(-n2ncc(C(=O)Nc3ccc4c(c3)OCCO4)c2C2CCN(C(=O)OC(C)(C)C)CC2)cc1`, the survival was inactive: 115%.
With `Cc1ccccc1-c1noc(-c2cc3ccccc3oc2=O)n1` the figure was inactive: 85%; with `COc1ccc(Br)cc1CNC(=O)CSc1cc(=O)n(C)c2ccccc12`, inactive: 99%.
`Cc1ccc(-c2nc(CS(=O)(=O)CC(=O)N3CCN(c4cccc(C)c4C)CC3)c(C)o2)cc1`: the survival is inactive: 116%.
With `CC1CCN(S(=O)(=O)c2ccc3c(c2)oc(=O)n3CC(=O)NC(C)c2ccccc2)CC1` (stereo not drawn) the figure was inactive: 119%; with `CCCc1ccc(OC(C)C(=O)Nc2sc3c(c2C(=O)OC)CCCCC3)cc1` (stereo not drawn), active: 9%.
With `CC(=O)C1=C(c2ccc(Cl)c(Cl)c2)N(C(C)=O)n2c(nnc2C2CCCCC2)S1` the figure was inactive: 100%; with `O=C(CCc1nnc2n(Cc3ccccc3Cl)c(=O)c3ccccc3n12)Nc1ccc(F)cc1`, inactive: 77%; with `CCCNC(=O)CCn1nc(-c2ccccc2)c2ccccc2c1=O`, inactive: 70%.
With `O=C(CSc1nnc(CNC(=O)c2ccccc2F)n1-c1ccccc1)Nc1ccccc1F` the figure was inactive: 73%; with `CCC(Cn1nnc2ccccc2c1=O)NC(=O)Nc1ccc(C)cc1` (stereo not drawn), inactive: 55%.
